Measurements taken from PubChem BioAssay AID504832 (National Center for Advancing Translational Sciences (NCATS), 2011).
In all, about 310,000 compounds went through this assay and about 18,000 (5.8%) were called active. Inconclusive means that the source gave no clear call. Such entries were picked first, then a sample of the others. The call rests on the fitted dose curve; in most records, active means well fitted inhibition curve with a large enough effect; inconclusive means small, poorly fitted or top-dose-only effect, or another doubt; inactive means no such curve, though single readings can be large or run the other way. No potency is given beside an inconclusive call; the fits are too rough.

assay: Primary qHTS for delayed death inhibitors of the malarial parasite plastid, 48 hour incubation; details: P. falciparum luciferase growth in erythrocytes; series mostly up to 28.7 µM; activity change, negative = inhibition: at the top concentration
Procedure, shortened: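 Luciferase-expressing parasites in RBCs, 2% Hct / 0.1% parasitemia final; RPMI 1640 + 0.5% Albumax; 37 C, 5% CO2, one generation; luminescence read-out, lower signal = inhibition.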
On the % scale 0 is the no-effect control and ±100 the full control effect; potency means the concentration at half of the fitted maximal effect; tags describe the fitted curve by direction and shape.

| Structure (SMILES) | Potency | activity change, negative = inhibition |
| --- | --- | --- |
| Cc1ccc2cc(CN(Cc3nnnn3Cc3ccco3)CC3CCCO3)c(=O)[nH]c2c1C (stereo not given) | inconclusive [inhibitor, partial curve] | – |
| CCC(=O)n1nc(-c2ccco2)nc1N | – | inactive: -11.7% |
| CC(C)c1oc(=O)cc2c1[C@@H](O)[C@H]1OC(=O)[C@@]3(C)C[C@@H](O)[C@@H](O)[C@@]2(C)C13 (stereo not given in full) | active: 1.47 µM | – |
| COc1ccc(OC)c(NC(=O)CN2C(=O)CSc3ccc(S(=O)(=O)N4CCCC4)cc32)c1 | inconclusive [inhibitor, single point] | – |
| CC(C)c1ccccc1NC(=O)Cn1c(/C=C/c2ccccc2)nc2ccccc21 | – | inactive: 87.6% |
| CCC(=O)N(CC)c1nc(-c2ccc(OC)cc2)cs1 | – | inactive: 83.5% |
| O=C(CS(=O)Cc1ccccc1Cl)Nc1ccccc1Cl (stereo not given) | – | inactive: 2.33% |
| COC(=O)c1ccc(/C=C2/SC(=S)N(CCCC(=O)Nc3ccccn3)C2=O)cc1 | inconclusive [inhibitor, single point] | – |
| Cc1sc2nc(C3CC3)nc(N3CCN(C(=O)c4ccc(F)cc4)CC3)c2c1C | inconclusive [inhibitor, single point] | – |
| O=C(CN1CCCC1)N1c2ccccc2Sc2ccc(C(F)(F)F)cc21 | inconclusive [inhibitor, single point] | – |
| COc1cc(NC(=O)CN2C(=O)C(c3ccccc3)=NC23CCCCCC3)cc(OC)c1 | inconclusive [inhibitor, partial curve, poor fit] | – |
| COc1ccc(C(=O)N/N=C/c2ccccc2OC(=O)c2ccccc2)cc1 | inconclusive [inhibitor, partial curve, poor fit] | – |
| Cc1ccc(N/N=C2\CC(=O)c3ccccc32)cc1Cl | active: 4.65 µM | – |
| CCOc1cc(N2CCOCC2)c(OCC)cc1NC(=O)Cc1cccc(OC)c1 | inconclusive [inhibitor, partial curve, poor fit] | – |
| O=C(Nc1cc(C(F)(F)F)ccc1N1CCOCC1)C1=NN(c2ccccc2)C(=O)CC1 | inconclusive [inhibitor, partial curve, poor fit] | – |
| CS(=O)(=O)N1CCc2cc(S(=O)(=O)NCCNS(=O)(=O)c3ccc4c(c3)CCN4S(C)(=O)=O)ccc21 | inconclusive [inhibitor, partial curve, poor fit] | – |
| CCC(Sc1nc2ccccc2c(=O)n1CC1CCCO1)C(=O)NCc1cccnc1 (stereo not given) | inconclusive [inhibitor, full curve, poor fit] | – |
| Cc1cc(N2CCC(C(=O)N3CCN(c4cccc(C)c4C)CC3)CC2)n2ncnc2n1 | active: 2.33 µM | – |
| O=C1COc2ccc(C(=O)CSc3nnc(NCc4ccccc4)s3)cc2N1 | inconclusive [inhibitor, partial curve] | – |
| O=C(CC(c1ccccc1)c1ccccc1)NCC(O)c1ccc([N+](=O)[O-])cc1 (stereo not given) | inconclusive [inhibitor, single point] | – |
| O=C(Nc1cccc(NC(=O)c2ccc(-c3cccc(Br)c3)o2)c1)c1ccco1 | inconclusive [inhibitor, partial curve, poor fit] | – |
| O=C(CCS(=O)(=O)c1ccc(F)cc1)Nc1nnc(-c2ccco2)o1 | inconclusive [inhibitor, single point] | – |

| Structure (SMILES) | Potency | activity change, negative = inhibition |
| --- | --- | --- |
| COc1c(N2CCN(C(=S)Nc3ccc(F)cc3)C(C)C2)c(F)cc2c(=O)c(C(=O)O)cn(C3CC3)c12 (stereo not given) | inconclusive [inhibitor, full curve] | – |
| NC(=O)NC(=O)COC(=O)c1ccc2c(c1)C(=O)N(Cc1ccccc1)C2=O | – | inactive: 23.3% |
| CC(=O)Nc1ccc(Nc2cc(C)nc3c(-c4ccccc4)c(C)nn23)cc1 | inconclusive [inhibitor, partial curve] | – |
| O=C1/C(=C/c2ccco2)Oc2c1ccc(O)c2CN1CCCCC1 | inconclusive [inhibitor, single point] | – |
| Cc1nc(-c2ccccn2)nc(N2CCOCC2)c1Cl | inconclusive [inhibitor, single point] | – |
| CCc1noc(C)c1C(=O)Nc1cccc(S(=O)(=O)N2CCCCCC2)c1 | inconclusive [inhibitor, single point] | – |
| COc1ccc(OC)c(NC(=O)COc2ccc(S(=O)(=O)N3CCCC3)cc2)c1 | inconclusive [inhibitor, partial curve, poor fit] | – |
| COc1ccc(Cc2noc(CN3CCN(c4ccc(Cl)cn4)CC3)n2)cc1OC | inconclusive [inhibitor, partial curve] | – |
| Cc1ccc(-c2c[n+](CC(=O)Nc3ccccc3)c3n2CCC3)cc1 | active: 7.38 µM | – |
| CC(=O)c1ccc(N2CCN(CC(O)COC(c3ccccc3)c3ccccc3C)CC2)cc1 (stereo not given) | active: 10.4 µM | – |
| COc1ccc(C(=O)NCCc2cccc(Cl)c2)cc1OC1CCN(C(C)=O)CC1 | inconclusive [inhibitor, partial curve, poor fit] | – |
| CCCc1cc(=O)oc2cc(C)cc(OC(C)C(=O)N[C@@H](Cc3c[nH]c4ccccc34)C(=O)O)c12 (stereo not given in full) | – | inactive: 13.9% |
| Cc1ccc(NC(=O)CCC(=O)NNC(=O)/C=C/C(=O)O)c(C)c1 | – | inactive: 4.4% |
| C/C(=N/OCC(=O)Nc1ccccc1)c1cccs1 | – | inactive: 87.2% |
| C/C(=N\Nc1ccc(S(=O)(=O)Nc2ccccc2)cc1[N+](=O)[O-])c1ccc(N2CCOCC2)cc1 | inconclusive [inhibitor, full curve] | – |
| O=C(CCc1nc(-c2ccc(Cl)cc2)no1)NC1CCCC1 | – | inactive: 14.4% |
| Cn1c(=O)[nH]c(=O)c2c1nc(N/N=C/c1ccncc1)n2Cc1ccc(Cl)cc1 | inconclusive [inhibitor, partial curve, poor fit] | – |
| COc1cccc(CN(C)C(=O)c2ccccc2SCC(=O)N2CCCC2)c1 | – | inactive: 3.36% |
| COc1ccc(CNC(=O)CSc2nnc3c(Cl)cc(C(F)(F)F)cn23)cc1OC | inconclusive [inhibitor, single point] | – |
| CCCOc1ccc2oc(=O)c3c(c2c1)CCCN3C(=O)CN1CCc2ccccc2C1 | inconclusive [inhibitor, single point] | – |
| COc1cc(O)c(C(CCN2CCCCC2)c2cc(OC)c(OC)c(OC)c2)c(OC)c1 (stereo not given) | active: 0.738 µM | – |
| CCOC(=O)Nc1ccc2c(c1)N(C(=O)CN1CCN(CCO)CC1)c1ccccc1CC2 | inconclusive [inhibitor, partial curve, poor fit] | – |

| Structure (SMILES) | Potency | activity change, negative = inhibition |
| --- | --- | --- |
| Cc1cc(Br)c(S(=O)(=O)NCc2ccncc2)cc1C | – | inactive: -8.04% |
| COc1cc(-c2nc3ccc(N4CCN(C)CC4)cc3[nH]2)cc(OC)c1OC | active: 9.28 µM | – |
| C=C(C)CNC(=S)N/N=C(\C)c1cccc(NC(C)=O)c1 | – | inactive: 19.5% |
| COCCCNC(=O)c1c(NC(=O)c2ccco2)n(Cc2ccccc2)c2nc3ccccc3nc12 | inconclusive [inhibitor, single point] | – |
| COc1ccc(O)c(/C=N/NC(=S)Nc2cccnc2)c1 | inconclusive [inhibitor, full curve, poor fit] | – |
| O=Cc1ccc(Sc2ncccn2)o1 | – | inactive: 11.3% |
| COc1cc2c(cc1OC)C(C)N(C(=O)c1sc(-c3cnccn3)nc1C)CC2 (stereo not given) | inconclusive [inhibitor, single point] | – |
| O=C(O)c1ccc(NCCc2ccc(Cl)cc2)c([N+](=O)[O-])c1 | – | inactive: -10.3% |
| COCCN(Cc1cc2cc(C)c(C)cc2nc1Cl)C(=O)N1CCOCC1 | inconclusive [inhibitor, partial curve] | – |
| Cc1cccc(-n2ccc(=O)c(C(=O)Nc3ccc(S(=O)(=O)Nc4nccs4)cc3)n2)c1 | inconclusive [inhibitor, single point] | – |
| CC(Sc1ncc(C(F)(F)F)cc1Cl)C(=O)NC(N)=O (stereo not given) | inconclusive [inhibitor, single point] | – |
| CC1(C)Cc2c(sc3c2c(=N)n(Cc2ccco2)c(=O)n3Cc2ccc(Cl)cc2)CO1 | active: 5.22 µM | – |
| CC(NC(=S)Nc1ccc(F)cc1)C(c1cccs1)N1CCOCC1 (stereo not given) | inconclusive [inhibitor, partial curve] | – |
| Cc1cc(NC(=O)c2ccc(S(=O)(=O)N3CCCC3)cc2)nc2c1c(=O)oc1ccccc12 | inconclusive [inhibitor, partial curve, poor fit] | – |
| COc1ccc(S(=O)(=O)N2CCc3ccccc32)cc1C(=O)N1CCOCC1 | inconclusive [inhibitor, full curve, poor fit] | – |
| COc1ccc(C2C(C(=O)O)CC(=O)N2c2ccc(OC)cc2)cc1 (stereo not given) | – | inactive: 3.78% |
| CCCC(C(=O)NCc1ccco1)N(C(=O)CNS(=O)(=O)c1ccccc1)c1ccc(OC)cc1 (stereo not given) | inconclusive [inhibitor, partial curve, poor fit] | – |
| C=CCNCCCOc1ccc(Cl)cc1C(C)(C)C | inconclusive [inhibitor, single point] | – |
| COc1ccc(S(=O)(=O)N(C)c2ccc(C(=O)NCC3CCCO3)cc2)cc1OC (stereo not given) | inconclusive [inhibitor, single point] | – |
| COc1cccc(NC(=O)[C@@H]2CCCN2C(=O)[C@@H]2Cc3ccccc3CN2C(=O)OC(C)(C)C)c1 | inconclusive [inhibitor, single point] | – |
| CC(=O)c1cccc(NC(=O)Nc2ccc3c(c2)N(C)C(=O)CS3)c1 | inconclusive [inhibitor, single point] | – |
